From patent publication US3951746A, “Antibiotics and process for their manufacture” (Schering Corporation, priority 1975, dated 1976)

Conditions: 0.1 molar buffers, pH range of 2 - 10
Excerpt: Further, it is stable to boiling for at least thirty (30) minutes in 0.1 molar buffers in the pH range of 2 - 10.

Work on CN[C@@H]1[C@@H](O)[C@@H](O[C@@H]2[C@@H](O)[C@H](O[C@H]3OC(C(C)N)=CC[C@H]3N)[C@@H](N)C[C@H]2N)OC[C@]1(C)O (stereo partly shown) [Verdamicin I] yielded a stable to boiling of at least 30 min.
